# Data as given in the supplement of paper PMC8728848.
# The list shows a part of the results.
# Tests used:
# Assay in all cases: glycan array binding signal (z-score within array); higher = stronger binding
# Conditions in all cases: glycan notation: IUPAC condensed, linker removed; mutation: F63H
# [1] = molecular target: Gal(b1-3)GlcNAc(b1-2)Man(a1-3)[Gal(b1-3)GlcNAc(b1-2)Man(a1-6)]Man(b1-4)GlcNAc(b1-4)GlcNAc
# Summary of the method: (§1)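 The Consortium for Functional Glycomics database supplied 3228 glycan arrays, of which those lacking an available protein sequence were dropped. The binding signal, a within-array Z-score, was averaged across arrays of the same protein sequence and across linkers. Negative scores can be read as non-binding.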
# [2] = molecular target: Gal(b1-3)GlcNAc(b1-2)Man(a1-3)[Gal(b1-3)GlcNAc(b1-2)Man(a1-6)]Man(b1-4)GlcNAc(b1-4)[Fuc(a1-6)]GlcNAc
# Summary of the method: as §1
# [3] = molecular target: Gal(b1-3)GlcNAc(b1-2)Man(a1-3)[GlcNAc(b1-4)][Gal(b1-3)GlcNAc(b1-2)Man(a1-6)]Man(b1-4)GlcNAc(b1-4)GlcNAc
# Summary of the method: as §1
# [4] = molecular target: Gal(b1-3)GlcNAc(b1-2)[Gal(b1-3)GlcNAc(b1-6)]Man(a1-6)[Gal(b1-3)GlcNAc(b1-2)Man(a1-3)]Man(b1-4)GlcNAc(b1-4)GlcNAc
# Summary of the method: as §1
# [5] = molecular target: Gal(b1-3)GlcNAc(b1-3)Gal(b1-3)GlcNAc
# Summary of the method: as §1
# [6] = molecular target: Gal(b1-3)GlcNAc(b1-3)Gal(b1-4)Glc
# Summary of the method: as §1
# [7] = molecular target: Gal(b1-3)GlcNAc(b1-3)Gal(b1-4)GlcNAc
# Summary of the method: as §1
# [8] = molecular target: Gal(b1-3)GlcNAc(b1-3)Gal(b1-4)GlcNAc(b1-2)Man(a1-3)[Gal(b1-3)GlcNAc(b1-3)Gal(b1-4)GlcNAc(b1-2)Man(a1-6)]Man(b1-4)GlcNAc(b1-4)GlcNAc
# Summary of the method: as §1
# [9] = molecular target: Gal(b1-3)GlcNAc(b1-3)Gal(b1-4)GlcNAc(b1-2)[Gal(b1-3)GlcNAc(b1-3)Gal(b1-4)GlcNAc(b1-6)]Man(a1-6)[Gal(b1-3)GlcNAc(b1-3)Gal(b1-4)GlcNAc(b1-2)Man(a1-3)]Man(b1-4)GlcNAc(b1-4)[Fuc(a1-6)]GlcNAc
# Summary of the method: as §1
# [10] = molecular target: Gal(b1-3)GlcNAc(b1-3)Gal(b1-4)GlcNAc(b1-3)Gal(b1-4)GlcNAc(b1-2)[Gal(b1-3)GlcNAc(b1-3)Gal(b1-4)GlcNAc(b1-3)Gal(b1-4)GlcNAc(b1-6)]Man(a1-6)[Gal(b1-3)GlcNAc(b1-3)Gal(b1-4)GlcNAc(b1-3)Gal(b1-4)GlcNAc(b1-2)Man(a1-3)]Man(b1-4)GlcNAc(b1-4)[Fuc(a1-6)]GlcNAc
# Summary of the method: as §1
# [11] = molecular target: Gal(b1-3)GlcNAc(b1-3)Gal(b1-4)GlcNAc(b1-6)[Gal(b1-3)GlcNAc(b1-3)]Gal(b1-4)Glc
# Summary of the method: as §1
# [12] = molecular target: Gal(b1-3)GlcNAc(b1-3)Gal(b1-4)[Fuc(a1-3)]GlcNAc
# Summary of the method: as §1
# [13] = molecular target: Gal(b1-3)GlcNAc(b1-3)Gal(b1-4)[Fuc(a1-3)]GlcNAc(b1-6)[Gal(b1-3)GlcNAc(b1-3)]Gal(b1-4)Glc
# Summary of the method: as §1
# [14] = molecular target: Gal(b1-3)GlcNAc(b1-3)GalNAc
# Summary of the method: as §1
# [15] = molecular target: Gal(b1-3)GlcNAc(b1-6)Gal(b1-4)GlcNAc
# Summary of the method: as §1
# [16] = molecular target: Gal(b1-3)GlcNAc(b1-6)GalNAc
# Summary of the method: as §1
# [17] = molecular target: Gal(b1-3)GlcNAc(b1-6)[Gal(b1-3)]GalNAc
# Summary of the method: as §1
# [18] = molecular target: Gal(b1-3)GlcNAc6S
# Summary of the method: as §1
# [19] = molecular target: Gal(b1-3)[Fuc(a1-4)]GlcNAc
# Summary of the method: as §1
# [20] = molecular target: Gal(b1-3)[Fuc(a1-4)]GlcNAc(b1-2)Man
# Summary of the method: as §1
# [21] = molecular target: Gal(b1-3)[Fuc(a1-4)]GlcNAc(b1-2)Man(a1-3)[Gal(b1-3)[Fuc(a1-4)]GlcNAc(b1-2)Man(a1-6)]Man(b1-4)GlcNAc(b1-4)[Fuc(a1-6)]GlcNAc
# Summary of the method: as §1
# [22] = molecular target: Gal(b1-3)[Fuc(a1-4)]GlcNAc(b1-3)Gal(b1-3)[Fuc(a1-4)]GlcNAc
# Summary of the method: as §1
# [23] = molecular target: Gal(b1-3)[Fuc(a1-4)]GlcNAc(b1-3)Gal(b1-4)[Fuc(a1-3)]GlcNAc
# Summary of the method: as §1
# [24] = molecular target: Gal(b1-3)[Fuc(a1-4)]GlcNAc(b1-6)GalNAc
# Summary of the method: as §1
# [25] = molecular target: Gal(b1-3)[GlcNAc(b1-6)]GalNAc
# Summary of the method: as §1
# [26] = molecular target: Gal(b1-3)[Neu5Ac(a2-6)]GalNAc
# Summary of the method: as §1
# [27] = molecular target: Gal(b1-3)[Neu5Ac(a2-6)]GlcNAc(b1-4)Gal(b1-4)Glc
# Summary of the method: as §1
# [28] = molecular target: Gal(b1-3)[Neu5Ac(b2-6)]GalNAc
# Summary of the method: as §1
# [29] = molecular target: Gal(b1-4)Gal
# Summary of the method: as §1
# [30] = molecular target: Gal(b1-4)GalNAc(a1-3)[Fuc(a1-2)]Gal(b1-4)GlcNAc
# Summary of the method: as §1
# [31] = molecular target: Gal(b1-4)GalNAc(b1-3)[Fuc(a1-2)]Gal(b1-4)GlcNAc
# Summary of the method: as §1
# [32] = molecular target: Gal(b1-4)Glc
# Summary of the method: as §1
# [33] = molecular target: Gal(b1-4)Glc6S
# Summary of the method: as §1
# [34] = molecular target: Gal(b1-4)GlcNAc
# Summary of the method: as §1
# [35] = molecular target: Gal(b1-4)GlcNAc(a1-6)Gal(b1-4)GlcNAc
# Summary of the method: as §1
# [36] = molecular target: Gal(b1-4)GlcNAc(b1-2)Man
# Summary of the method: as §1
# [37] = molecular target: Gal(b1-4)GlcNAc(b1-2)Man(a1-3)Man(b1-4)GlcNAc(b1-4)GlcNAc
# Summary of the method: as §1
# [38] = molecular target: Gal(b1-4)GlcNAc(b1-2)Man(a1-3)[Gal(b1-4)GlcNAc(b1-2)Man(a1-6)]Man(b1-4)GlcNAc(b1-4)GlcNAc
# Summary of the method: as §1
# [39] = molecular target: Gal(b1-4)GlcNAc(b1-2)Man(a1-3)[Gal(b1-4)GlcNAc(b1-2)Man(a1-6)]Man(b1-4)GlcNAc(b1-4)[Fuc(a1-6)]GlcNAc
# Summary of the method: as §1
# [40] = molecular target: Gal(b1-4)GlcNAc(b1-2)Man(a1-3)[Gal(b1-4)GlcNAc(b1-2)Man(a1-6)][Gal(b1-4)GlcNAc(b1-4)]Man(b1-4)GlcNAc(b1-4)[Fuc(a1-6)]GlcNAc
# Summary of the method: as §1
# [41] = molecular target: Gal(b1-4)GlcNAc(b1-2)Man(a1-3)[Gal(b1-4)GlcNAc(b1-2)Man(a1-6)][GlcNAc(b1-4)]Man(b1-4)GlcNAc(b1-4)[Fuc(a1-6)]GlcNAc
# Summary of the method: as §1
# [42] = molecular target: Gal(b1-4)GlcNAc(b1-2)Man(a1-3)[GlcNAc(b1-2)Man(a1-6)]Man(b1-4)GlcNAc(b1-4)GlcNAc
# Summary of the method: as §1
# [43] = molecular target: Gal(b1-4)GlcNAc(b1-2)Man(a1-3)[GlcNAc(b1-4)][Gal(b1-4)GlcNAc(b1-2)Man(a1-6)]Man(b1-4)GlcNAc(b1-4)GlcNAc
# Summary of the method: as §1
# [44] = molecular target: Gal(b1-4)GlcNAc(b1-2)Man(a1-3)[Man(a1-6)]Man(b1-4)GlcNAc(b1-4)GlcNAc
# Summary of the method: as §1
# [45] = molecular target: Gal(b1-4)GlcNAc(b1-2)Man(a1-6)Man(b1-4)GlcNAc(b1-4)GlcNAc
# Summary of the method: as §1
binder,measurement,setting,value
"AAL (Agrocybe aegerita), Q6WY08 (protein) MQGVNIYNISAGTSVDLAAPVTTGDIVTFFSSALNLNAGAGNPNNTTLNLFAENGAYLLHIAHRLQENVIIFNSRQPDGPWLVEQRVSDVANQFAGIDGKAMVTVFDHGDKYQVVINEKTVIQYTKQISGLTLSLSYNATEETSIFSTVVEAVTYTGLALEHHHHHH",glycan array binding signal (z-score),[1],-0.052
same,glycan array binding signal (z-score),[2],0.392
same,glycan array binding signal (z-score),[3],-0.226
same,glycan array binding signal (z-score),[4],0.041
same,glycan array binding signal (z-score),[5],-0.353
same,glycan array binding signal (z-score),[6],-0.312
same,glycan array binding signal (z-score),[7],-1.05
same,glycan array binding signal (z-score),[8],0.297
same,glycan array binding signal (z-score),[9],0.835
same,glycan array binding signal (z-score),[10],0.029
same,glycan array binding signal (z-score),[11],-0.01
same,glycan array binding signal (z-score),[12],-0.305
same,glycan array binding signal (z-score),[13],0.216
same,glycan array binding signal (z-score),[14],-0.11
same,glycan array binding signal (z-score),[15],-0.72
same,glycan array binding signal (z-score),[16],0.316
same,glycan array binding signal (z-score),[17],-0.137
same,glycan array binding signal (z-score),[18],-0.136
same,glycan array binding signal (z-score),[19],-0.36
same,glycan array binding signal (z-score),[20],0.665
same,glycan array binding signal (z-score),[21],-0.096
same,glycan array binding signal (z-score),[22],0.303
same,glycan array binding signal (z-score),[23],0.002
same,glycan array binding signal (z-score),[24],0.294
same,glycan array binding signal (z-score),[25],-0.12
same,glycan array binding signal (z-score),[26],0.235
same,glycan array binding signal (z-score),[27],0.571
same,glycan array binding signal (z-score),[28],0.218
same,glycan array binding signal (z-score),[29],-0.522
same,glycan array binding signal (z-score),[30],-0.29
same,glycan array binding signal (z-score),[31],0.273
same,glycan array binding signal (z-score),[32],-0.57
same,glycan array binding signal (z-score),[33],-0.108
same,glycan array binding signal (z-score),[34],-0.505
same,glycan array binding signal (z-score),[35],-0.321
same,glycan array binding signal (z-score),[36],0.042
same,glycan array binding signal (z-score),[37],-0.293
same,glycan array binding signal (z-score),[38],-0.102
same,glycan array binding signal (z-score),[39],-0.166
same,glycan array binding signal (z-score),[40],-0.332
same,glycan array binding signal (z-score),[41],0.125
same,glycan array binding signal (z-score),[42],-0.361
same,glycan array binding signal (z-score),[43],-0.345
same,glycan array binding signal (z-score),[44],-0.322
same,glycan array binding signal (z-score),[45],0.16
